Experiments:
[1] = tested on: HUVEC; assay: 58P1D12 ECD-induced HUVEC tube formation; type: cell-based; details: MAb 30 μg/mL, recombinant 58P1D12 ECD 3 μg/mL, 16 hours
Procedure: FIG. 8. […] The cells were then plated on Matrigel® and allowed to form tubes for 16 hours. The number of tubes were counted.
FIG. 9. 58P1D12 MAbs: Comparison of in vitro HUVEC tube formation. […] The cells were then plated on Matrigel® and allowed to form tubes for 16 hours. The number of tubes were counted.
The cells were then plated on Matrigel® and allowed to form tubes for 16 hours.
The cells were then plated on Matrigel® and allowed to form tubes for 16 hours. The number of tubes were counted. […] (FIG. 9).

[2] = tested on: 3T3-58P1D12 tumor xenografts; assay: 3T3-58P1D12 tumor xenografts, right flank; type: in vivo, SCID mice; details: day 27; 500 μg i.p. twice weekly, 8 doses from Day 0; vs control antibody, p<0.0001
Source text: FIG. 11. […] 3T3-58P1D12 cells (5.0×10^6 cells) were embedded in Matrigel and implanted into the right flanks of male SCID mice on Day 0. […] Tumor growth was monitored every 3 to 4 days using caliper measurements.
Subcutaneous (s.c.) tumors are generated by injection of 5×10^4-10^6 cancer cells mixed at a 1:1 dilution with Matrigel (Collaborative Research) in the right flank of male SCID mice. To test antibody efficacy on tumor formation, i.e. antibody injections are started on the same day as tumor-cell injections. As a control, mice are injected with either purified mouse IgG (ICN) or PBS; or a purified MAb that recognizes an irrelevant antigen not expressed in human cells. In preliminary studies, no difference is found between mouse IgG or PBS on tumor growth. Tumor sizes are determined by caliper measurements, and the tumor volume is calculated as length×width×height. Mice with subcutaneous tumors greater than 1.5 cm in diameter are sacrificed.
In this experiment, 3T3-58P1D12 cells (5.0×10^6 cells) were embedded in Matrigel and implanted into the right flanks of male SCID mice on Day 0. […] Tumor growth was monitored every 3 to 4 days using caliper measurements.

[3] = tested on: LAPC9-AD prostate cancer xenografts; assay: LAPC9-AD prostate cancer xenografts grown in mouse tibiae; details: day 32; 500 μg i.p. twice weekly, 10 doses; vs control antibody, p=0.0057
[4] = tested on: LAPC9-AI prostate tumor xenografts; assay: Established LAPC9-AI prostate tumor xenografts in tibiae, monotherapy and combination with Carboplatin; type: in vivo, SCID mice; details: day 33; MAb 2 mg loading then 1.0 mg i.p. two times a week, 7 doses; Carboplatin 40 mg/kg i.v. days 7, 11, 15, 19, 22, 26; vs control antibody
Procedure: FIG. 16. […] The tumors were allowed to establish for 7 days, at which time the animals were randomized and assigned to four different groups (n=10 in each group) as indicated in the graph. […] Carboplatin (40 mg/kg) was administered to the mice intravenously (i.v.) on days 7, 11, 15, 19, 22 and 26. On day 33 all mice were sacrificed and the tumors were excised and weighed on an electronic balance.
The tumors were allowed to establish for 7 days, at which time the animals were randomized and assigned to four different groups (n=10 in each group). […] Carboplatin (40 mg/kg) was administered to the mice intravenously (i.v.) on days 7, 11, 15, 19, 22 and 26. On day 33 all mice were sacrificed and the tumors were excised and weighed on an electronic balance.

[5] = tested on: Ovcar5-58P1D12 tumors; assay: Survival of mice bearing i.p. established Ovcar5-58P1D12 tumors; type: in vivo, SCID mice
Procedure: FIG. 15. […] Ovcar5-58P1D12 tumor cells (2.0×10^6 cells) were injected into the peritoneum of female SCID mice on Day 0. […] Animals were treated twice weekly with antibody for as long as they survived. The health and survival of the mice was monitored and recorded every few days.
Ovarian tumors often metastasize and grow within the peritoneal cavity. Accordingly, intraperitoneal growth of ovarian tumors in mice are performed by injection of 2 million cells directly into the peritoneum of female mice. Mice are monitored for general health, physical activity, and appearance until they become moribund. At the time of sacrifice, the peritoneal cavity can be examined to determine tumor burden and lungs harvested to evaluate metastasis to distant sites. Alternatively, death can be used as an endpoint. The mice are then segregated into groups for the appropriate treatments, with 58P1D12 or control MAbs being injected i.p.
In another experiment, Ovcar5-58P1D12 tumor cells (2.0×10^6 cells) were injected into the peritoneum of female SCID mice on Day 0. […] Animals were treated twice weekly with antibody for as long as they survived. The health and survival of the mice was monitored and recorded over several days during the study.

[6] = tested on: 3T3-58P1D12 tumor xenografts; assay: Established 3T3-58P1D12 tumors grown in mouse tibiae; type: in vivo, SCID mice; details: day 24; loading dose 1.5 mg then 750 μg i.p. twice weekly, 6 doses from day 7; vs control antibody, <0.01
Source text: FIG. 12. […] Tumor growth was monitored every 3 to 4 days using caliper measurements.
Tumor growth is monitored using calipers.
Tumor growth was monitored every 3 to 4 days using caliper measurements.

[7] = target: T1, cell surface 58P1D12 (Homo sapiens, UniProt Q9H9P2); assay: Binding to 58P1D12 by flow cytometry or ELISA; details: cell surface 58P1D12 by flow cytometry or immobilized 58P1D12 by ELISA
T1 construct: host or cells: 58P1D12-expressing cells, endogenous (cancer xenograft cells) or recombinant
T1 sequence (Q9H9P2 22-273): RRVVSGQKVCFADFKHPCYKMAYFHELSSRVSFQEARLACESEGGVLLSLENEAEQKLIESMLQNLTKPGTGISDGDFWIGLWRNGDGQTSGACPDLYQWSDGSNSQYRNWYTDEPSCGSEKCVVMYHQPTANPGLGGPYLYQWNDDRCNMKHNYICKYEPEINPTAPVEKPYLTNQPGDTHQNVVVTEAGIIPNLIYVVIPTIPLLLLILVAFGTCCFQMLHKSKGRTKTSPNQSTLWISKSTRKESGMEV
Procedure: Primary hybridoma screening for MAbs to 58P1D12 is performed by FACS analysis. The protocol is as follows: 50 μl/well of hybridoma supernatant (neat) or purified antibodies (in serial dilutions) are added to 96-well FACS plates and mixed with 58P1D12-expressing cells (endogenous or recombinant, 50,000 cells/well). The mixture is incubated at 4° C. for two hours. At the end of incubation, the cells are washed with FACS Buffer and incubated with 100 μl of detection antibody (anti-hIgG-PE) for 45 minutes at 4° C. At the end of incubation, the cells are washed with FACS Buffer, fixed with Formaldehyde and analyzed using FACScan. Data are analyzed using CellQuest Pro software.

B1: Ha8-4c4.1: fully human γ1κ monoclonal antibody to 58P1D12 (Ha8-4c4.1 VH & Ha8-4c4.1 VL clone 1-B3); hybridoma ATCC PTA-9404 (antibody, V domains shown)
VH: QVQLQESGPGLVKPSETLSLTCTVSGGSVSSGGYYWSWIRQPPGKGLEWIGYIYYSGGTNYNPSLKSRVTISVDTSKNQFSLKLTSVTAADTAVYYCARESGYCTNVACFPDAFDIWGQGTMVTVSS
VL: DIVMTQSPDSLAVSLGERATINCKSSQGVLYSSNNKNYLAWYQQKPGQPPKLLIYWASTRESGVPDRFSGSGSGTDFTLTISSLQAEDVAVYFCQQYYVSPLTFGGGTKVEIKR
B1 was tested, and the “HUVEC tube formation inhibition (comparison of 58P1D12 MAbs)” value [1] was “+”, the “inhibition of tube formation” value ([1]; p=0.005) was 50% and the “inhibition of tumor growth (tumor volume)” value [2] was “approximately 78%”. For the same molecule, the “inhibition of tumor growth (tumor weight)” value [3] was 60%, the “inhibition of tumor growth (tumor weight)” value [4] was 76% and the median survival ([5]; 500 μg i.p. twice weekly from day 7, Control MAb median 37 days) was 69 days. The “increase in median survival” value ([5]; vs Control MAb, p=0.0066 Logrank test) was 32 days, the “inhibition of growth of established tumors” value [6] was “approximately 63%” and the “binding to 58P1D12” value [7] was “specifically bind to recombinant 58P1D12 expressing cells and endogenous cell surface 58P1D12 expressed in cancer xenograft cells”.

— US20100047166A1, “ANTIBODIES AND RELATED MOLECULES THAT BIND TO 58P1D12 PROTEINS” (priority 2008, published 2010)
